The target of assay [1] is P2Y2 receptor (mouse (endogenous in bone marrow granulocytes of C57BL/10 mice)) (UniProt P35383). As to the kind of experiment: co-IP; granulocyte lysate (1 % Triton X-100 lysing buffer, 600 ug protein), precleared with rabbit normal serum; IP with rabbit polyclonal anti-P2Y1, anti-P2Y2 or anti-P2Y4 IgG and protein A-Sepharose, 4 °C overnight; Western blot with rabbit anti-P2Y antibodies, chemiluminescence. (In general: In western blotting, separated proteins are transferred to a membrane and probed.)

Amino acid sequences for entries named in this document (tags omitted).
UniProt P35383: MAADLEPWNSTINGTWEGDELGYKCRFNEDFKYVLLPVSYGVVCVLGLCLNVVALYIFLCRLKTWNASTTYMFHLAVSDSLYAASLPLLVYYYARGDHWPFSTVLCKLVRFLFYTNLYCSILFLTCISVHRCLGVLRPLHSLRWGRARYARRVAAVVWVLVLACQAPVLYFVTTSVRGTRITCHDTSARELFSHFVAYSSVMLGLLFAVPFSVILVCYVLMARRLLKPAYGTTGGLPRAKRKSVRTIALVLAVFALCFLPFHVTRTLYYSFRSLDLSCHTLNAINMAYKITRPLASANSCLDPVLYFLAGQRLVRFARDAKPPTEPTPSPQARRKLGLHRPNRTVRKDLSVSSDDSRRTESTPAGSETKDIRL
UniProt P49650: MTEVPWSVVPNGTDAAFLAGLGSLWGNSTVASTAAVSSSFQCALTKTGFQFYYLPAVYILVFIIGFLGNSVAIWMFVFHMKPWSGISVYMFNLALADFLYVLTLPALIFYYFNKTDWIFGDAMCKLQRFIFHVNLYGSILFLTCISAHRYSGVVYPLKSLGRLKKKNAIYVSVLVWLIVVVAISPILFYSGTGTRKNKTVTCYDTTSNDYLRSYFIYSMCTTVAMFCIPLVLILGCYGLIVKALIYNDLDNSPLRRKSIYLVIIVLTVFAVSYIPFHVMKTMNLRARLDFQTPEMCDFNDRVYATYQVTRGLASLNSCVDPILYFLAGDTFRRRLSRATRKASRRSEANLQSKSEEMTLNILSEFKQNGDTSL
UniProt Q9JJS7: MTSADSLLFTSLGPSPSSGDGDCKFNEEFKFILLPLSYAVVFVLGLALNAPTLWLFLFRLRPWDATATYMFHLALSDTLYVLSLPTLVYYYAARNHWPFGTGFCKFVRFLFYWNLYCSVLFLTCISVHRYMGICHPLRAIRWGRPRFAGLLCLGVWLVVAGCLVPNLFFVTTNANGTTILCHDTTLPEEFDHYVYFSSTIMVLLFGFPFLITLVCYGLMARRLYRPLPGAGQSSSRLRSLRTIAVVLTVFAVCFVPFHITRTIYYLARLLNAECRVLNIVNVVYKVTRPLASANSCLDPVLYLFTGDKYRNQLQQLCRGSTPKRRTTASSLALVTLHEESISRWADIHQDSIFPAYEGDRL

Assay [2] has as its target P2Y1 receptor (mouse (endogenous in bone marrow granulocytes of C57BL/10 mice)) (UniProt P49650). Described as above.
Assay [3] shares this target. As to the kind of experiment: FRET or BRET; antibody-labelled fixed granulocytes; emission spectra 515-600 nm at 488 nm excitation in a microplate spectrofluorometer (FLEX station 3); FRET ratio 575 nm/525 nm. On the technique in general: BRET reads energy transfer from a luciferase to a nearby fluorophore.
Assay [4] shares this target. Kind of assay: FRET or BRET; fixed, permeabilized granulocytes; goat anti-P2Y1 with Alexa Fluor 488 secondary (donor), rabbit anti-P2Y2 or anti-P2Y4 with Alexa Fluor 546 secondary (acceptor); confocal microscopy, excitation 488 nm, emission 560-650 nm.
Assay [5] has the same target. As to the kind of experiment: co-IP; whole protein lysate of granulocytes (1,000 ug); IP with goat polyclonal anti-P2Y1 on protein A-Sepharose, 4 °C, 12 h; blot with rabbit anti-P2Y2 and rabbit anti-P2Y1 and infrared fluorescent secondary antibodies (Odyssey).
The target of assay [6] is P2Y4 receptor (mouse (endogenous in bone marrow granulocytes of C57BL/10 mice)) (UniProt Q9JJS7). Kind of assay: co-IP; granulocyte lysate (1 % Triton X-100 lysing buffer, 600 ug protein), precleared with rabbit normal serum; IP with rabbit polyclonal anti-P2Y1, anti-P2Y2 or anti-P2Y4 IgG and protein A-Sepharose, 4 °C overnight; Western blot with rabbit anti-P2Y antibodies, chemiluminescence.

No constants are given. Whether binding was seen depends on the method and setting. Binding seen in cells or lysates may run through a third protein. Some entries that bind do so weakly or less than the wild type.

On to “P2Y4 receptor (from UniProt Q9JJS7 1-361)”, for which the binding entry in assay [1] is “no binding”; in assay [2], “binds”; in assay [3], “binds”; in assay [4] it was “binds”.

“P2Y2 receptor (from UniProt P35383 1-373)”: the binding result in assay [5], in assay [2], in assay [3] and in assay [4] was “binds” throughout.

Take “P2Y1 receptor (from UniProt P49650 1-373)”: the binding result in assay [6] and in assay [1] was “binds” each time.

These data come from publication PMC4936188.
